Values marked as one replicate rest on one cluster of the flow cell; about a third of the high ones do not repeat.
Test system: ATP
Experiment: switch fluorescence ratio, 500 uM ATP over buffer (Cy3 cluster intensity, sum of 5 cycles each) (fold (ratio)); higher = stronger signal-on switching upon ATP binding; sequences stand for … in TCGTCGGCAGCGTCAGATGTGTATAAGAGACAGTTTTTTTTTTTTTTTTTTTTTTTTT…TC
Conditions: aptamer strand: ATP DNA aptamer (quencher-CACCTGGGGGAGTATTGCGGAGGAAGG + anchor), 100 nM annealed; ATP concentration: 500 uM; one replicate
Procedure, shortened: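 Clusters carrying Cy3-labelled switching strands on a modified Illumina MiSeq flow-cell were annealed to 100 nM quencher-labelled ATP aptamer and imaged in selection buffer. They were imaged again after 15 min with 500 uM ATP at 22 °C, over five buffer/ATP cycles with NaOH stripping and re-annealing in between. For each cluster, the fluorescence ratio is the summed Cy3 intensity of the target cycles divided by that of the buffer cycles, averaged per switch-domain sequence. Clusters outside 100-1000 RFU were left out.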
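Also: ATP exposure 15 min at 22 °C before imaging.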

Sequence	switch fluorescence ratio
TTAACTTCCG	1.27
ATCCATACG	1.02
TGAGTCTTAG	1.01
AGCATTGCTT	0.981
GGGAGGCTGG	1.06
GACACACGGT	1.25
CGGGTGGAAG	1.02
TCAGGGGCTC	1.04
CCAAAACACA	1.06
ACCGTCTCAC	1.13
GACTGGATAC	2.57
GCCGGTGTAA	0.977
CAGCCTAGTC	1.07
GATTCATGTG	1.02
TCAGTTATCC	0.958
CAATTAGGAT	0.932
GGCGATCCCT	1
ACCCGAGCCA	1.04
CTATGATTA	0.956
TTTTGCTAAA	2.56
GGGCGCATCA	0.945
GTTGACTAGA	0.983
CTCTGTCCG	0.989
ATGATTTGTA	0.991
GCGATTATCA	0.978
TTTATATCAA	0.966

Sequence	switch fluorescence ratio
TTACCGGACC	1.34
GTATTCAGCG	1.03
AAACCTGTGA	1.13
GAGTATTTGT	0.998
TTATGCGTA	1.03
TTCTCACGGG	1.26
GCTTGTTTCT	1.02
CATTTAGAAG	0.97
GTAGGCGCGA	1.05
CCGGAAATGT	1.03
CAAATTAAAT	0.995
TGGGTTATT	0.989
GCTTAGATGC	0.946
CCTTTTCTTG	1.12
AGTGCTGTAT	0.971
TACACAATTT	1.05
GATCATATTG	0.946
AGCAGATTGC	1.04
GTCCTAGTGT	1.05
CGAATCATTA	0.969
CAATATCTGT	0.961
CGCTAAGTTA	1.02
AACTGCACTG	1.32
TAGTGTGACA	1.01
CTAGACAACA	1.04
TATGGCAGTG	1.02

Sequence	switch fluorescence ratio
CGTTAGGGCC	1
GACTATAGCA	1.06
CCGGCATAAG	1.33
GCCCGGACTA	1.03
CATGGGCTT	1.03
AGATCTCCAT	0.989
TTACTGAGGA	0.989
TTATCCCCAA	1.11
CTGGAA	1.07
CGGGTTGAAC	1.02
ACTACTAGAA	0.994
CGCTCGGAAA	1.01
CCGGGGCGAG	1.11
TGTATATGGC	1.02
TAATGTTCGT	0.976
TTGGGGTCT	1.05
TTGAAGTCCT	1.02
CGGTGGAAG	0.979
TTTGAGCACA	1.05
CAGGCTATAG	0.971
AATGTGTCAG	1.04
CGGAGATCCT	1.05
TCGTCTTGTG	1.02
GGCGTCAATC	1.11
TAATAGCCAC	1.02
GGGTTGGTCC	0.99

Sequence	switch fluorescence ratio
ATGTCGATCG	1.02
ATTGCTTATC	0.985
ATGACCCCCC	1.12
TCGGGGAAGA	1.04
TAATGGTATC	1.01
TCCTGGGACC	1.04
AACATCAACA	1.09
GATGATAAGG	1.02
TGGGTCTTT	1.49
CATGCCAGTT	0.969
TGTTTGCCA	0.966
ACGGGGATC	1.02
AATCAATATT	0.999
TAACATTGAG	0.99
TTAGCGATGG	1.19
AGAAGAAGAG	0.983
TATAGCTGTG	0.997
GAAGTATAGG	0.994
CCGGGGTTCT	1.03
TGGTCCAGGT	1.26
AACGTTTGGA	1.01
CTGCAATCTT	6.11
TGACATGCCT	1.08
ACGAGGAATC	1.08
GACACGTCCC	1.07
AGGTAGGAGA	1.04

Sequence	switch fluorescence ratio
TCGGTAGCTC	1.24
AAGAAAGAAT	0.96
TTCGGCAATT	1.8
ATAGCAGCAA	1.73
TGAACCAACC	1.23
GGAGGGATTA	0.98
GTAGTAGTCT	1.1
TAATGTCTGC	1.01
CATTAAAGTT	0.991
CACCTTGGTC	0.971
CAAATCGCTC	1.09
TTCATGGGTT	0.965
AGAACCTTGA	1.08
CTAAGTAAGG	1.03
CCAAGCTTAC	4.55
TAATTAGACA	1.09
CTGGCACTGT	1.03
CGACGACCCT	1.47
ACAATGGTGT	1.09
GATAACACCT	1.36
TCAATAGTCG	1.06
AACCTAAG	1.02
TCCGCAACGG	1.03
AACTGGTATG	0.99
AATTGGCCTG	0.985
CGGTGTCGG	1

Sequence	switch fluorescence ratio
ATGTGCTTCT	0.972
TGGAACGGTG	1.03
ATGTGTAGAA	0.999
CCCACGTTTT	1.05
AATTCGCAAC	4.46
GCTCGGGATG	1.04
GGTGACGGTT	1.01
TAATCACCGC	1.11
CATCTAGTTG	0.947
AGCCCCATCT	0.956
GGCACATAGG	1.39
TTGATAGGTT	0.943
TTCGTCGGG	0.993
ATCCGGATGA	0.978
GATGACGCGG	1.22
GGTGAAGGGT	0.998
TAGCGGTCTA	0.957
TAAACGAGCT	1.02
AGCCATTTGG	1.04
TCGTCCAGTC	1.02
GTCAACCAAG	1.02
GATAACGGGA	0.929
TAGGCCGTGT	0.84
GTTCCGGGCG	0.975
CGGCAAACGC	1.44
TTCATTTAA	1.07

Sequence	switch fluorescence ratio
GACAAGTTGC	1.02
TTAAAGGAGA	1.02
CGGCGATGAC	2.15
TCTCGGTGTT	1.25
CTAAAAACAG	1.03
TTTATGGGAG	0.979
CCAGCCGGTC	0.997
GGAATATCTT	0.976
TCTAGCTTTG	1.06
ACCGGGACCT	1.32
TACTACAATC	1.09
TCCTTTTGTC	1.06
AATGGTATAA	0.996
GAAGTGCCGG	1.05
GGAGCTCCCC	0.935
AGGGCTAGGA	0.978
TTGTTGCGAT	1.02
GCTATGTGCC	0.978
ATTTGCTGGG	0.975
ACACGTATTC	1.05
GCTTAACAGG	1.01
GCGCTGGGAA	0.98
CCGAAAGTAT	1.34
AAAATTCCAG	0.993
GTACGAGGAA	1.03
TGTTAGTATA	1.02

Sequence	switch fluorescence ratio
GGATTTGGGA	1.03
GATATGGTTT	1.01
AGTCCGGCAA	5.21
TGAACAGATT	1.16
CAGGTTTCAA	0.992
GGTCGATCTG	0.988
TTCGTACGT	1.04
GTTGCATGGC	1.05
AAGAATTTCT	0.955
TTGATGTAGG	0.969
TTCAGAGT	0.961
CGCATCCGCC	1.73
GCCTTTTTCT	1.01
TCCGAATCAG	1.18
ATGGAAGTCG	0.943
TCGGCGTCTG	0.991
TGCAAGTCTC	1.09
GATAACCGGA	0.989
CGGTCATAAA	0.992
